Data: PubChem BioAssay AID686971 (National Center for Advancing Translational Sciences (NCATS), 2013)
Screen size: about 360,000 compounds; about 7,500 (2.1%) were called active. Inconclusive results, whose numbers are uncertain, are shown with a selection of clear calls. The call rests on the fitted dose curve; in most records, active means well fitted cell-killing curve with a large enough effect; inconclusive means small, poorly fitted or top-dose-only effect, or effect the other way, or another doubt; inactive means no such curve, though single readings can be large or run the other way. No potency is given beside an inconclusive call; the fits are too rough.

Assay: qHTS for induction of synthetic lethality in tumor cells producing 2HG: qHTS for the HT-1080-IDH1KD cell line;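 on activity, negative = toxicity: 0% = DMSO wells and -100% = cell-free medium wells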
Conditions: HT-1080 IDH1 knockdown viability, ATP luminescence, 48 h; activity, negative = toxicity: at 46.1 µM (top of the series) unless noted
Summary of the method: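 Using the IDH1-knockdown HT-1080 line run in the same batch and compound series as the NT line, viability after 48 h at 37 °C was determined by CellTiter-Glo luminescence and expressed as % activity.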
Potency means the concentration at half of the fitted maximal effect; tags describe the fitted curve by direction and shape.

Structure (SMILES)	Potency	activity, negative = toxicity
CCOC(=O)c1c(NC(=O)CN2C(=O)C(=O)N(CC(C)C)C2=O)sc(C)c1CC	inactive	
N#Cc1ccc(CN2CCN(c3ccc(S(=O)(=O)N4CCCC4)cn3)CC2)cc1	inactive	
CN1C(=O)C(C)(C)c2cc(S(=O)(=O)N3CCC(C(=O)NCc4ccc(F)cc4)CC3)ccc21	inactive	
COc1ccc(Nc2cc(C)nc3ccccc23)cc1	active: 11.2 µM	
O=C1c2ccccc2C(=O)C1c1ccncc1	inactive	
CN1CCN(C2=C(Cl)C(=O)c3ccccc3C2=O)CC1	inconclusive [cytotoxic, single point]	
CC1CN(Cc2cn(C)nc2-c2ccc(Oc3ccccc3)cc2)CCN1C (stereo unspecified)	inconclusive [cytotoxic, single point]	
Cc1cccc(/C=C/C(=O)c2cc(Br)ccc(=O)c2O)c1	inconclusive [cytotoxic, single point]	
COc1ccc(Cl)cc1C(=O)NNC(=O)c1nn(C)c(=O)c2ccccc12	inconclusive [cytotoxic, single point]	
CCc1ccc2nc(N(CCCN(C)C)C(=O)c3ccc4c(c3)OCCO4)sc2c1	inconclusive [cytotoxic, single point]	
O=C(Nc1ccc(S(=O)(=O)N2CCCC2)cc1)c1ccc(OCC2CCCO2)cc1 (stereo unspecified)		inconclusive: -30.7% [cytotoxic]
CN(CC(=O)Nc1ccccc1C(F)(F)F)C(=O)c1ccccc1Sc1ccccc1C#N	inactive	
O=C1c2ccccc2-c2onc3ccc(Oc4ccccc4)c1c23	active: 4.11 µM	
COc1ccc(CCCNC(=O)C2(C)Cc3c(-c4cccc(C(N)=O)c4)ccnc3O2)cc1 (stereo unspecified)	inconclusive [cytotoxic, partial curve]	
Cc1ccsc1C(=O)Nc1cc(Cl)ccc1-n1cncn1	inactive	
CN1CCN(C(c2ccc(Br)cc2)c2cc(Cl)c3cccnc3c2O)CC1 (stereo unspecified)	inconclusive [cytotoxic, partial curve, poor fit]	
CC(=O)Nc1ccc(S(=O)(=O)N[C@@H](C)C(=O)OCC(=O)Nc2ccc3c(c2)OCCO3)cc1	inactive	
COc1ccc(N2C(=S)NC3N2C(=S)NC3(C)c2ccccc2)cc1 (stereo unspecified)	active: 11.6 µM	
CC1(C)CC(=O)C/C(=N/NC(=O)COc2ccc3ccccc3c2Br)C1	inconclusive [cytotoxic, single point]	
CC1(C)Cc2cccc(OCC(=O)Nc3ccccc3F)c2O1	inactive	
O=C(O)CC1c2ccccc2CCN1S(=O)(=O)c1cccs1 (stereo unspecified)	inactive	
O=C1c2ccccc2C(=O)N1c1ccccc1	inactive	
COc1ccccc1/C=C/CN1CCCC(CO)(CCc2ccccc2)C1 (stereo unspecified)	inconclusive [cytotoxic, single point]	
Cc1nnc(N/N=C/c2ccccn2)[nH]c1=O	inconclusive [cytotoxic, full curve]	
CCOC(=S)SCC(=O)Nc1ncc(C)s1	active: 18.4 µM	
S=C(NCCc1ccccc1)N/N=C/c1ccccc1Cl	inactive	

Structure (SMILES)	Potency	activity, negative = toxicity
Cc1ccc2nc(-c3ccc(NC(=O)COC(=O)c4ccc(=O)[nH]c4)cc3)sc2c1	inconclusive [cytotoxic, single point]	
C=CCn1c(COc2ccccc2F)nnc1SCC(=O)Nc1cc2oc3ccccc3c2cc1OC	inactive	
Cc1ccc(C(NC(=O)C2CCN(Cc3ccc(Oc4ccccc4)cc3)CC2)c2ccccn2)cc1 (stereo unspecified)	active: 20.6 µM	
O=C(NCc1cccnc1)c1ccc(-c2cc3ccccc3oc2=O)cc1	inconclusive [cytotoxic, single point]	
COc1ccc(C(=O)C[n+]2ccc(N)c(C)c2C)cc1	inconclusive [cytotoxic, partial curve]	
c1ccc(-c2ccc(C(c3ccccc3)n3ccnc3)cc2)cc1 (stereo unspecified)		inconclusive: -32.8% [cytotoxic]
Oc1c(Cl)cc(Cl)c2cccnc12	active: 20.6 µM	
O=C(NCc1ccccc1)C(=O)NCC1COc2ccccc2O1 (stereo unspecified)	active: 10.3 µM	
CC(C)CCSc1nc(N2CCOCC2)c2c(c1C#N)CC(C)(C)OC2	inconclusive [cytotoxic, single point]	
O=C(c1ccc(NS(=O)(=O)/C=C/c2ccccc2)cc1)N1CCCCC1	inconclusive [cytotoxic, partial curve]	
Cc1ccc2nc(N(CCN(C)C)C(=O)c3cc(Cl)sc3Cl)sc2c1	inactive	
Cc1cc(S(=O)(=O)N2CCN(CC(=O)NCCc3cccs3)CC2)ccc1Br	inactive	
c1ccc(C[C@H]2CN=C(Nc3ccccc3)N2CC2CCCC2)cc1	inconclusive [cytotoxic, single point]	
CC(NC(=O)/C(C#N)=C/c1ccc(Cl)c([N+](=O)[O-])c1)c1ccccc1 (stereo unspecified)	inconclusive [cytotoxic, single point]	
CCOC(=O)[C@]12CCCC=C1N(Cc1ccco1)C(=O)[C@H](CC(=O)NCc1ccccc1)C2	inactive	
COc1ccc(C(=O)Nc2sc3c(c2C#N)CCN(C(C)=O)C3)cc1	active: 5.8 µM	
O=C(NCc1ccc(Cl)cc1)c1cc(=O)[nH]c2ccccc12	inactive	
CC(C)CC(O)(CC(C)C)C(=O)NNc1ccccc1	inconclusive [cytotoxic, single point]	
COc1cccc(C(=O)/C=C/Nc2cccc(O)c2)c1	inconclusive [cytotoxic, single point]	
Cc1sc2ncnc(N/N=C/c3ccc(O)cc3)c2c1C	inconclusive [cytotoxic, partial curve]	
O=C(CCSc1ccccc1)Nc1ccc(OCc2ccccc2)cc1	inactive	
COc1cccc(/C=C(\C)C(=O)c2c(C)cc(C)[nH]c2=O)c1OC	inactive	
O=C(c1cc(-c2cccs2)nc2ccccc12)N1CCN(c2ccccc2O)CC1	inactive	
Oc1ccccc1CNc1cnc2ccccc2c1	inactive	
COc1ccc2[nH]c(=O)c(CN(Cc3nnnn3Cc3ccc(F)cc3)CC3CCCO3)cc2c1 (stereo unspecified)	inactive	
